According to the supplement of paper PMC4166925:
± gives the standard deviation of the averaged measurements. Whole data set: some 33,000 sequences, median “E-score (dimensionless, -0.5 to 0.5)” near -0.049, cut for the highest 2% near 0.37. This is one part of the list.

These sequences were tested on T1, PmTbr T-box DNA-binding domain (GST fusion) (assay: PBM E-score of 8-mer (E-score (dimensionless, -0.5 to 0.5)); Tbr is Tbrain of the sea star Patiria miniata (Pm) or the sea urchin Strongylocentrotus purpuratus (Sp); higher = stronger binding preference; most listed sequences are background and not binding sites). Conditions: the construct has about 5 more residues each side.
T1 sequence: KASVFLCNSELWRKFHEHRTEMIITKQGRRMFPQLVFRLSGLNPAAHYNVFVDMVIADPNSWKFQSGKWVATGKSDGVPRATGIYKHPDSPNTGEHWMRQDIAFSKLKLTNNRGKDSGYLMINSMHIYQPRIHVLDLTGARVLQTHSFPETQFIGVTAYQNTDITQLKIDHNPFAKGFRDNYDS
Method in brief: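 Universal Agilent oligonucleotide arrays, made double-stranded by primer extension, were incubated with 200 nM GST-fused Tbr T-box DNA-binding domain in PBS (pH 7.5). The protein was expressed in BL21 E. coli at 20 °C and purified by glutathione affinity chromatography. After scanning and quantification, the Universal PBM Analysis Suite assigned an enrichment E-score to each ungapped 8-mer, averaged over duplicate arrays.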

Sequence	PBM E-score of 8-mer
ACCAGGGC	-0.144 ± 0.08
AACACTGC	0.322 ± 0.021
ACTACGGA	-0.1544 ± 0.00067
ATTCAAGC	-0.0243 ± 0.046
TCTGGTCA	-0.125 ± 0.047
ATAAAGAA	-0.132 ± 0.043
AAAAGGTA	-0.231 ± 0.12
ACTCCGAA	-0.00434 ± 0.02
CATGTAAA	-0.0865 ± 0.017
ACTATTAG	-0.036 ± 0.093
AATACCAT	-0.0206 ± 0.066
GGAAGACA	-0.00842 ± 0.024
TAGTCATA	-0.0725 ± 0.0084
CAAATGAA	-0.303 ± 0.0046
TCCCCCCA	-0.168 ± 0.029
CCCGCAGA	-0.168 ± 0.061
AATCCTAG	-0.31 ± 0.026
GCCTTGAA	0.00906 ± 0.025
GCGGTTTA	-0.0137 ± 0.0091
ATGCGATA	0.0765 ± 0.014
ATGCGAGG	0.155 ± 0.05
AAAACCCC	-0.2264 ± 0.0016
TCTACACA	0.0416 ± 0.0097
ATAGTTTG	-0.12 ± 0.03
AAGTTCCA	-0.0779 ± 0.05

Sequence	PBM E-score of 8-mer
CAAGGGCC	-0.243 ± 0.0032
AGCCACGC	-0.0441 ± 0.025
AAATTGCC	-0.0577 ± 0.12
TAAAGTTA	-0.195 ± 0.073
GAGGCTCC	-0.101 ± 0.097
CCGCGACC	0.00378 ± 0.03
CCCGGTCG	-0.111 ± 0.059
ATGGCTCC	-0.143 ± 0.015
AAACGTTC	-0.0546 ± 0.081
AGCTAGAA	-0.041 ± 0.032
AGCTGAGA	0.165 ± 0.07
CAGCAACG	0.0837 ± 0.049
GGACGACC	-0.367 ± 0.021
CGCGCAAA	0.172 ± 0.036
AAGGGCCA	-0.203 ± 0.0058
TCCACTAA	-0.121 ± 0.037
ATAACATA	-0.0354 ± 0.053
ACTGCGTA	-0.084 ± 0.063
CGCCCGAG	0.159 ± 0.072
CTGGGTAA	-0.12 ± 0.047
ACTCCTAA	-0.284 ± 0.0031
AATGGCCA	-0.153 ± 0.014
AGCTTTCA	-0.0869 ± 0.029
ACCCCGAT	-0.0394 ± 0.1
GGTTGGAC	-0.0675 ± 0.016

Sequence	PBM E-score of 8-mer
CGACGGTC	-0.00835 ± 0.024
AAGTGCTA	0.448 ± 0.016
AGCGTCGA	-0.101 ± 0.0055
CAAACAGC	0.00487 ± 0.034
CACCTTGC	0.4191 ± 0.0029
TGGCTACA	-0.117 ± 0.0015
CAAACAAA	-0.051 ± 0.021
AAGGGAGA	-0.166 ± 0.039
GATCATGA	-0.195 ± 0.009
CTCATCAC	0.249 ± 0.0053
GCTGCATA	-0.0535 ± 0.029
TCCGGTCA	-0.105 ± 0.023
AATGTGCT	0.251 ± 0.023
AGGGCCTA	-0.312 ± 0.038
ACGCTTTC	0.101 ± 0.036
CTGGCATC	-0.0115 ± 0.013
AATCCGCA	0.0886 ± 0.023
AAGGTATC	0.108 ± 0.077
CTATGGTC	-0.182 ± 0.017
CTGGCGTA	-0.0506 ± 0.048
ATACACGC	0.0808 ± 0.053
CTGCCCCA	0.0302 ± 0.0014
ATCGGGTG	0.212 ± 0.043
GAAACTAA	0.0495 ± 0.037
GCTATGAA	-0.223 ± 0.019

Sequence	PBM E-score of 8-mer
ATTGTACG	-0.0254 ± 0.021
GTCCAGTA	-0.228 ± 0.11
AACACAAT	0.229 ± 0.0032
CACTACTG	0.0937 ± 0.016
GAAGGCCA	-0.238 ± 0.03
AATAACAA	0.0902 ± 0.031
CCAAGCCA	-0.297 ± 0.0033
AAGAAAAG	-0.321 ± 0.14
TCGTACAA	-0.0321 ± 0.12
GGGGCGTA	-0.141 ± 0.034
CACTACCG	0.138 ± 0.026
CCGGCTGA	-0.222 ± 0.012
ACTTTGTC	0.218 ± 0.026
CCAGCTCA	0.032 ± 0.011
CCCAGATA	-0.233 ± 0.14
ATTGACCG	-0.205 ± 0.029
ATCTTATA	-0.079 ± 0.064
ACCATTCA	0.041 ± 0.024
CAACGCGG	0.143 ± 0.035
ACAGCCGC	0.0319 ± 0.077
TCGACACA	0.319 ± 0.016
ATAGAGTA	-0.106 ± 0.0083
GGTGCGAA	0.48957 ± 0.00016
GGTTCAAC	-0.15 ± 0.039
AAGATAGT	-0.0386 ± 0.041

Sequence	PBM E-score of 8-mer
ACAAGCCG	-0.0272 ± 0.0016
GAACACGA	0.0885 ± 0.011
GTCGGGAA	-0.0748 ± 0.046
CCCCCGTA	-0.0786 ± 0.11
CTACTGAA	-0.13 ± 0.018
TACTTCAA	-0.237 ± 0.022
CGGGCAAG	-0.0794 ± 0.036
CCTACCTC	-0.0492 ± 0.071
ATGACCCA	-0.0989 ± 0.055
CCCATAGC	-0.0976 ± 0.053
CTATATTA	0.0547 ± 0.023
ATTGTAGG	-0.0174 ± 0.026
CCCTGGAG	-0.106 ± 0.024
AGGGGACA	-0.0658 ± 0.047
CCAAATTC	0.137 ± 0.047
ATACGTAC	-0.0364 ± 0.057
ATTACAGA	-0.15 ± 0.012
AAGAAGTG	0.216 ± 0.013
CGTTCATC	-0.188 ± 0.0052
CATGTCTC	-0.133 ± 0.016
CAAGGTAC	-0.0147 ± 0.012
CGTCTGAG	-0.166 ± 0.065
CAACGTAA	-0.163 ± 0.13
ATAATTGC	0.014 ± 0.077
CGATAAGA	0.0841 ± 0.032

Sequence	PBM E-score of 8-mer
AGAGTTGG	-0.00498 ± 0.0058
GGTGGCAA	0.3882 ± 0.0017
CCCTGAGC	-0.0772 ± 0.042
ACTTCACC	0.0665 ± 0.03
AGCTTATA	-0.126 ± 0.055
CATTGGAA	-0.0527 ± 0.049
ACCATCAG	0.202 ± 0.024
CAAAGTAG	-0.0267 ± 0.012
AATCTCCA	-0.108 ± 0.07
CGGGGGAC	-0.175 ± 0.086
ACTATAGG	-0.126 ± 0.044
GACTTCTA	-0.0602 ± 0.012
AGGCAGAC	-0.173 ± 0.0082
ACTCGACT	-0.0594 ± 0.015
CCTAAGTC	-0.0839 ± 0.0091
AGTGAAAT	0.241 ± 0.05
CCTGAACA	0.0846 ± 0.038
GAGCCCAC	-0.0709 ± 0.04
ACGGTGGA	-0.21 ± 0.0022
CTGGCCTC	-0.14 ± 0.041
CCTCTAAG	0.0268 ± 0.032
GGGCGTAA	0.118 ± 0.012
AACTTCAG	-0.177 ± 0.012
AGGAGTTC	-0.136 ± 0.1
GTGATTGA	0.125 ± 0.042

Sequence	PBM E-score of 8-mer
CGCAAACC	-0.0122 ± 0.0044
GGTTGAAA	-0.0312 ± 0.071
AAGTGTAC	0.0291 ± 0.019
AAGGAAGA	-0.262 ± 0.1
ACCTGCTG	0.1509 ± 0.0011
AAACCCGA	-0.02 ± 0.015
AGGCATGC	-0.327 ± 0.025
CCCATGTA	-0.0443 ± 0.12
CGCGAGAC	0.329 ± 0.02
GGCCTCTA	-0.206 ± 0.058
GAGATAGA	-0.103 ± 0.0062
TCCATGGA	-0.249 ± 0.024
TATGCCCA	-0.223 ± 0.067
AAATGCAC	-0.0607 ± 0.12
ATCAAGTG	0.117 ± 0.021
TAGTGTAA	0.185 ± 0.072
CCATATTA	-0.18 ± 0.026
ACCCTGAA	0.1933 ± 0.0017
AGCAACGA	-0.0846 ± 0.025
ATTCATGC	-0.149 ± 0.024
GTTCGCTA	0.0963 ± 0.024
GGGGCACA	-0.137 ± 0.089
